The values below come from publication PMC2682205, “Cdc7p-Dbf4p Regulates Mitotic Exit by Inhibiting Polo Kinase” (PLoS Genetics, 2009).

Chains of the proteins cited; added tags and fusions are not shown. Lines headed by an entry give the natural chain unless they say otherwise; changes in a name come on top.
UniProt P06243: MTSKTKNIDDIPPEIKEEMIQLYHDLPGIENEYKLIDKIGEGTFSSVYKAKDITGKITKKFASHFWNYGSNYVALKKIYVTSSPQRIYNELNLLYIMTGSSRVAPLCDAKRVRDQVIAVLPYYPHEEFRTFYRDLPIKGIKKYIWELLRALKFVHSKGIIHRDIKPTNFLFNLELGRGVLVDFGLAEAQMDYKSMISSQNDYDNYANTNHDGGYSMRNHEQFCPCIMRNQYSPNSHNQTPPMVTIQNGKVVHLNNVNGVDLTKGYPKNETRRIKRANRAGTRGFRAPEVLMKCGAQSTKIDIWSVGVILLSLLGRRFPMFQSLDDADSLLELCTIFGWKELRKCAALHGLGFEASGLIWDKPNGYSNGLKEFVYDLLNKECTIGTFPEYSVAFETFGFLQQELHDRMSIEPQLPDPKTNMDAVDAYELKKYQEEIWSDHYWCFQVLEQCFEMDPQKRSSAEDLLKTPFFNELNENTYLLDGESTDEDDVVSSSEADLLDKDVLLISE

No constants are given. Whether binding was seen depends on the method and setting. For some of these results: Binding seen in cells or lysates may run through a third protein. Some entries that bind do so weakly or less than the wild type. Tags and fused reporters may be left off the sequences shown.

Test [1] has as its target T1, Gal4 DNA binding domain (GBD) fusion to Dbf4p_(67–227) (budding yeast (S. cerevisiae)) (UniProt P32325).
T1 sequence: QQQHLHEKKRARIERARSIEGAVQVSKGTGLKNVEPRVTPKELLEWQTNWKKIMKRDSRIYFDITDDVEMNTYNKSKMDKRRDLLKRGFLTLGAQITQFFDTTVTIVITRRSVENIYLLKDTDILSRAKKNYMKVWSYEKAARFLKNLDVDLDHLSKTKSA
The test can be described thus: two-hybrid; GBD-DBF4 baits and GAD-CDC5 preys co-transformed, 10-fold serial dilutions spotted on SCM–Trp–Leu–His with 2 mM 3AT, 30°C, 2 to 3 days (Figure 1A, C).

For test [2], the target named is Endogenous HA3-Cdc7p-Dbf4p complex (budding yeast (S. cerevisiae; endogenous in a W303 derivative)) (UniProt P06243+P32325). As to the kind of experiment: co-IP; yeast at endogenous protein levels, nocodazole arrest; extracts in NP-40 lysis buffer (20 mM Tris-HCl, 150 mM NaCl, 0.5% NP-40, 1 mM EGTA); HA3-Cdc7p precipitated with 12CA5 on protein A-Sepharose; blots for Cdc7, Dbf4 and Cdc5-Myc.

In test [3] the target is HA-Cdc7p-Dbf4-NΔ109p (budding yeast (S. cerevisiae)) (UniProt P06243+P32325). As to the kind of experiment: co-IP; Sf9 cells co-infected with baculoviruses for HA-Cdc7p, 3Myc-NΔ65Polo and Dbf4p derivatives; immunoprecipitation with 12CA5 (anti-HA); blots with 9E10 (Myc), anti-Cdc7p and anti-Dbf4p.
The target in test [4] is HA-Cdc7p-Dbf4-NΔ65p (budding yeast (S. cerevisiae)) (UniProt P06243+P32325). The description is as above.
The target of test [5] is HA-Cdc7p-Dbf4-NΔ221p (budding yeast (S. cerevisiae)) (UniProt P06243+P32325). The description is as above.
The target of test [6] is HA-Cdc7p-Dbf4p kinase (wild type, full length) (budding yeast (S. cerevisiae)) (UniProt P06243+P32325). The test is described as above.

B1: GAD-Polo_(454–705) (domain or fragment, UniProt P32562 454-705)
chain: AVLRKELIATSTNVIKSEISLRILASECHLTLNGIVEAEAQYKMGGLPKSRLPKIKHPMIVTKWVDYSNKHGFSYQLSTEDIGVLFNNGTTVLRLADAEEFWYISYDDREGWVASHYLLSEKPRELSRHLEVVDFFAKYMKANLSRVSTFGREEYHKDDVFLRRYTRYKPFVMFELSDGTFQFNFKDHHKMAISDGGKLVTYISPSHESTTYPLVEVLKYGEIPGYPESNFREKLTLIKEGLKQKSTIVTVD
In the case of B1, in test [1], the binding result is listed as “binds”.

B2: GAD-Polo_(510–705) (domain or fragment, UniProt P32562 510-705)
chain: HPMIVTKWVDYSNKHGFSYQLSTEDIGVLFNNGTTVLRLADAEEFWYISYDDREGWVASHYLLSEKPRELSRHLEVVDFFAKYMKANLSRVSTFGREEYHKDDVFLRRYTRYKPFVMFELSDGTFQFNFKDHHKMAISDGGKLVTYISPSHESTTYPLVEVLKYGEIPGYPESNFREKLTLIKEGLKQKSTIVTVD
For B2, the binding result in test [1] is “no binding”.

B3: Cdc5-Myc15 (enzyme, UniProt P32562 1-705)
chain: MSLGPLKAINDKQLNTRSKLVHTPIKGNTADLVGKENHFKQTKRLDPNNDHHHQPAQKKKREKLSALCKTPPSLIKTRGKDYHRGHFLGEGGFARCFQIKDDSGEIFAAKTVAKASIKSEKTRKKLLSEIQIHKSMSHPNIVQFIDCFEDDSNVYILLEICPNGSLMELLKRRKVLTEPEVRFFTTQICGAIKYMHSRRVIHRDLKLGNIFFDSNYNLKIGDFGLAAVLANESERKYTICGTPNYIAPEVLMGKHSGHSFEVDIWSLGVMLYALLIGKPPFQARDVNTIYERIKCRDFSFPRDKPISDEGKILIRDILSLDPIERPSLTEIMDYVWFRGTFPPSIPSTVMSEAPNFEDIPEEQSLVNFKDCMEKSLLLESMSSDKIQRQKRDYISSIKSSIDKLEEYHQNRPFLPHSLSPGGTKQKYKEVVDIEAQRRLNDLAREARIRRAQQAVLRKELIATSTNVIKSEISLRILASECHLTLNGIVEAEAQYKMGGLPKSRLPKIKHPMIVTKWVDYSNKHGFSYQLSTEDIGVLFNNGTTVLRLADAEEFWYISYDDREGWVASHYLLSEKPRELSRHLEVVDFFAKYMKANLSRVSTFGREEYHKDDVFLRRYTRYKPFVMFELSDGTFQFNFKDHHKMAISDGGKLVTYISPSHESTTYPLVEVLKYGEIPGYPESNFREKLTLIKEGLKQKSTIVTVD
Regarding B3, in test [2], the binding entry is “binds”.

B4: 3Myc-NΔ65Polo (domain or fragment, UniProt P32562 66-705)
chain: ALCKTPPSLIKTRGKDYHRGHFLGEGGFARCFQIKDDSGEIFAAKTVAKASIKSEKTRKKLLSEIQIHKSMSHPNIVQFIDCFEDDSNVYILLEICPNGSLMELLKRRKVLTEPEVRFFTTQICGAIKYMHSRRVIHRDLKLGNIFFDSNYNLKIGDFGLAAVLANESERKYTICGTPNYIAPEVLMGKHSGHSFEVDIWSLGVMLYALLIGKPPFQARDVNTIYERIKCRDFSFPRDKPISDEGKILIRDILSLDPIERPSLTEIMDYVWFRGTFPPSIPSTVMSEAPNFEDIPEEQSLVNFKDCMEKSLLLESMSSDKIQRQKRDYISSIKSSIDKLEEYHQNRPFLPHSLSPGGTKQKYKEVVDIEAQRRLNDLAREARIRRAQQAVLRKELIATSTNVIKSEISLRILASECHLTLNGIVEAEAQYKMGGLPKSRLPKIKHPMIVTKWVDYSNKHGFSYQLSTEDIGVLFNNGTTVLRLADAEEFWYISYDDREGWVASHYLLSEKPRELSRHLEVVDFFAKYMKANLSRVSTFGREEYHKDDVFLRRYTRYKPFVMFELSDGTFQFNFKDHHKMAISDGGKLVTYISPSHESTTYPLVEVLKYGEIPGYPESNFREKLTLIKEGLKQKSTIVTVD
As for B4, the binding result in test [3] is “no binding”; in test [4], “binds”; in test [5] it was “no binding”; in test [6], “binds”.
